Laboratory results from PubChem BioAssay AID1963852 (Molecular Pharmacology Branch, DTP, NCI, 2024).
Certain results were filed several times, with different values. The other results are left out here. There may be further records. The values listed for one entry are repeated measurements in other runs, samples, wells, individuals or studies. Brackets with × stand for listed records that agree. A date in brackets names the month of the test.

Test system: 282377-053-R-J1-PDC complex spheroid viability
Assay: Anticancer human tumor 282377-053-R-J1-PDC patient-derived colon adenocarcinoma cell line growth inhibition [POLQ]
Conditions: for IC50: compound alone; for viability, T/C: stronger effect = lower value
Procedure: Multicellular complex tumor spheroid response to Polymerase (POL) inhibitors (novobiocin, ART-558, RP6685) in combination with a variety of drugs and investigational agents in selected tumor cell lines
The POL inhibitors (novobiocin, ART-558, and RP6685) were evaluated both individually and in combination with standard of care and investigational anticancer small molecules within a complex spheroid model of solid tumors. . Complex spheroids include a stromal component modeled by human endothelial cells (HUVEC) and fibroblasts modeled by human mesenchymal stem cells (MSCs). The concentration ranges selected for each drug and investigational agent were based upon clinically achievable concentrations if the clinical Cmax of the agent was known.
Compounds. The drugs and investigational agents: novobiocin (NSC847541), ART-558 (NSC835418), RP-6685 (NSC848927), peposertib (NSC802822), ceralasertib (NSC780249), elimusertib (NSC800525), camonsertib (NSC841442), AZD-1390 (NSC803789), olaparib (NSC753686), talazoparib (NSC767125), rucaparib (NSC756644), sotorasib (NSC818433), MRTX-1133 (NSC836407), SN-38 (NSC673596), topotecan (NSC609699), epotoside (NSC141540), doxorubicin (NSC123127), gemcitabine (NSC613327), 5-fluorouracil (NSC19893), paclitaxel (NSC125973), vemurafenib (NSC761431), MSA-2 (NSC828583), SN-011 (NSC837082), adavosertib (NSC754352), prexasertib (NSC758257), carboplatin (NSC241240) and oxaliplatin (NSC266046), were obtained from the National Cancer Institute (NCI) Developmental Therapeutics Program Chemical Repository (21). The FDA-approved anticancer drug set is available from the Developmental Therapeutics Program at https://dtp.cancer.gov/organization/dscb/obtaining/. […] The stock solutions were prepared in dimethyl sulfoxide (DMSO, Sigma-Aldrich, St. Louis, MO, cat. D2650), except for the platinum compounds which were prepared in saline (Quality Biological, Gaithersburg, MD, cat. 114-055-101), at 800-fold the tested concentration and stored at -70 degrees C prior to their use. All drugs and investigational agents were tested over a range starting from a high concentration at or near the clinical Cmax and decreasing in half-log increments. If the clinical Cmax for an agent had not been determined, the highest concentration tested was 10 microM, except for SN-38, which was tested at a high concentration of 1 microM.
Cell Culture. All cells were maintained in an incubator at 37 degrees C and 5% CO2 with 95% humidity. The PDC lines were cultured according to standard operating procedures established by the NCI PDMR (https://pdmr.cancer.gov). Table 3 of the manuscript, lists the cell lines along with the number of the three cell types plated to form the mct-spheroids and media for tumor cell growth. After thawing, all PDC lines, except 997537-175-T-J1-PDC and 415267-285-R-J2-PDC, were cultured in Matrigel-coated flasks prepared with a working solution of 1X Ham's F-12 nutrient mix, without supplementation (Thermo Fisher Scientific, cat. 11765054), 100 U/mL penicillin-streptomycin (Thermo Fisher Scientific, cat. 15140122), and 2.5% Matrigel (Corning Inc., Corning, NY, cat. 354248) for the first three passages. The two PDC lines 997537-175-T-J1-PDC and 415267-285-R-J2-PDC were cultured on uncoated flasks. The 857933-349-R-J2-PDC line was cultured in 6C/Colon 1B media containing advanced DMEM/F-12 (Thermo Fisher Scientific, cat. 12634028), 10 mM HEPES (Thermo Fisher Scientific, cat. 15630080), 1X GlutaMAX supplement (Thermo Fisher Scientific, cat. 35050061), 0.1 mg/mL primocin (InvivoGen, San Diego, CA, cat. ant-pm-2), 10% defined fetal bovine serum, heat inactivated (HyClone Laboratories Inc., Logan, UT, cat. SH30070.03HI), 50% L-WRN conditioned media (ATCC, cat. CRL-3276), 1.25 mM N-Acetyl-L-cysteine (Sigma-Aldrich, cat. A9165), 10 mM nicotinamide (Sigma-Aldrich, cat. N0636), 1X B-27 supplement (Thermo Fisher Scientific, cat. 17504044), 1X N-2 supplement (Thermo Fisher Scientific, cat. […]
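Further: spheroids exposed to compounds for seven days.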
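Wherever viability, T/C is given: 100% = DMSO vehicle control viability.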

SMILES | IC50 | viability, T/C (compound alone 0.316 µM) | viability, T/C (compound alone 0.1 µM) | other results
CC(=O)O[C@H]1C(=O)[C@@]2(C)[C@H]([C@H](OC(=O)c3ccccc3)[C@]3(O)C[C@H](OC(=O)[C@H](O)[C@@H](NC(=O)c4ccccc4)c4ccccc4)C(C)=C1C3(C)C)[C@]1(OC(C)=O)CO[C@@H]1C[C@@H]2O | < 9.49 nM [2023-10] and 25.4 nM, > 3 µM [2023-11] |  |  | 
Cc1cccc(N(C)C(=O)C2C(O)CCN2c2nc(C)cc(C(F)(F)F)c2C#N)c1 (stereo unspecified) |  | 95.5, 113 (2×), 111, 97.2, 85.4, 95.4, 101% [2023-10] and 99.7, 108 (2×), 98.4, 93% [2023-11] |  | viability, T/C (compound alone 0.0316 µM): 80.6, 117, 76.2, 79.7, 111, 84.2, 86.6, 91.3% [2023-10] and 96.4, 103, 104, 92.2, 98.8% [2023-11]; viability, T/C (compound alone 1 µM): 90.7, 121, 108 (2×), 110, 96, 96.9, 97.1% [2023-10] and 114, 101, 95.6, 103, 102% [2023-11]; viability, T/C (compound alone 3.16 µM): 93.1, 118, 85.6, 106, 83.6, 99.2, 93.4, 128% [2023-10] and 97.6, 96.2, 99.9, 101, 109% [2023-11]; viability, T/C (compound alone 10 µM): 112, 93.9, 94.7, 92.5, 85.9, 98.9, 111, 95.6% [2023-10] and 103, 102, 97.8, 94.1, 107% [2023-11]
Nc1ccn(C2OC(CO)C(O)C2(F)F)c(=O)n1 (stereo unspecified) | 121 nM, 83.8 nM [2023-10] and > 10 µM [2023-11] |  |  | 
Nc1ccc(C#CCN(C(=O)Cc2ncc(C(F)(F)F)cc2C(F)(F)F)c2ccc(F)cc2)nn1 |  | 97.5, 106 (2×), 97.7, 98.6, 86.7, 98.3, 105, 110, 107 (2×), 91.2, 79.9% | 117, 104, 102, 101, 85.7, 85.5, 97.5, 94.1, 97.1 (2×), 95.5, 83.9, 83.7% | 
COC1C(OC(N)=O)C(O)C(Oc2ccc3c(O)c(NC(=O)c4ccc(O)c(CC=C(C)C)c4)c(=O)oc3c2C)OC1(C)C (stereo unspecified) |  |  | 92.8, 108 (2×), 96.1, 120, 104, 85.6, 123, 100, 102 (3×), 105% | 
CCc1c2c(nc3ccc(O)cc13)-c1cc3c(c(=O)n1C2)COC(=O)[C@]3(O)CC | 119 nM, 59.6 nM [2023-10] and > 1 µM [2023-11] |  |  | 
